In article PMC12820563, “FoxP3 forms a head-to-head dimer in vivo and stabilizes its multimerization on adjacent microsatellites”:
This is one part of the list.

biological target: T1, MBP-FoxP1dN (Mus musculus, UniProt P58462 326-579); experiment: PD-seq (MBP pull-down with sequencing); 20 mM Tris-HCl pH 7.5, 100 mM NaCl, 1.5 mM MgCl2, 0.4 uM protein, 0.1 uM dsDNA library, 30 min, room temperature, amylose pull-down; high values mean tight binding; settings: protein: recombinant; tags: His6-MBP; chain copies: 2; dsDNA, one strand shown
T1 sequence: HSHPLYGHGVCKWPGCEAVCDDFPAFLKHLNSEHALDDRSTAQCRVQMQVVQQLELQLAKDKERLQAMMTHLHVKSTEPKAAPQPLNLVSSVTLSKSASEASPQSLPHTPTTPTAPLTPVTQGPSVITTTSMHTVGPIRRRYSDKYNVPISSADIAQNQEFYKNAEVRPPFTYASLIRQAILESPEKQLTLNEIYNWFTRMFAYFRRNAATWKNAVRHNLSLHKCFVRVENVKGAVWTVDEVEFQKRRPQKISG
In short: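 Binding is the reads-per-million enrichment of pull-down relative to input, pooled across replicates. For this, 0.4 µM His6-MBP-tagged mouse FoxP3 or FoxP1 fragment lacking the N-terminus, made in E. coli, was incubated with 0.1 µM Klenow-filled double-stranded degenerate DNA library for 30 min at room temperature in Tris pH 7.5 buffer with NaCl and MgCl2. Complexes bound to amylose resin were washed three times before proteinase K released the DNA for PCR barcoding and Illumina sequencing.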

| Sequence | binding signal |
| --- | --- |
| GATGATTGTTCTCCCAGCTGATGAATTCGGGATGTCGAGTAAACAAATTTTCCTAATCTTTCTGTTCAAGCGCCATCTAC | 0.867 RPM ratio (pull-down/input) |
| GATGATTGTTCTCCCAGCTGATGAATTCCTAATGTCGAGTAAACAAATTTTCCTAATCTTTCTGTTCAAGCGCCATCTAC | 0.994 RPM ratio (pull-down/input) |
| GATGATTGTTCTCCCAGCTGATGAATTCTTTGCATCGAGTAAACAAATTTTCCTAATCTTTCTGTTCAAGCGCCATCTAC | 1.26 RPM ratio (pull-down/input) |
| GATGATTGTTCTCCCAGCTGATGAATTCAACACGTCGAGTAAACAAATTTTCCTAATCTTTCTGTTCAAGCGCCATCTAC | 1.05 RPM ratio (pull-down/input) |
| GATGATTGTTCTCCCAGCTGATGAATTCACACTGTCGAGTAAACAAATTTTCCTAATCTTTCTGTTCAAGCGCCATCTAC | 0.93 RPM ratio (pull-down/input) |
| GATGATTGTTCTCCCAGCTGATGAATTTCTACACTCGAGTAAACAAATTTTCCTAATCTTTCTGTTCAAGCGCCATCTAC | 0.899 RPM ratio (pull-down/input) |
| GATGATTGTTCTCCCAGCTGATGAATTTTCGAAATCGAGTAAACAAATTTTCCTAATCTTTCTGTTCAAGCGCCATCTAC | 0.936 RPM ratio (pull-down/input) |
| GATGATTGTTCTCCCAGCTGATGAATTTCGCATGTCGAGTAAACAAATTTTCCTAATCTTTCTGTTCAAGCGCCATCTAC | 0.944 RPM ratio (pull-down/input) |
| GATGATTGTTCTCCCAGCTGATGAATTCTGCACATCGAGTAAACAAATTTTCCTAATCTTTCTGTTCAAGCGCCATCTAC | 0.911 RPM ratio (pull-down/input) |
| GATGATTGTTCTCCCAGCTGATGAATTAAGCCTTTCGAGTAAACAAATTTTCCTAATCTTTCTGTTCAAGCGCCATCTAC | 0.884 RPM ratio (pull-down/input) |
| GATGATTGTTCTCCCAGCTGATGAATTCAATGCGTCGAGTAAACAAATTTTCCTAATCTTTCTGTTCAAGCGCCATCTAC | 1.05 RPM ratio (pull-down/input) |
| GATGATTGTTCTCCCAGCTGATGAATTGACTGATTCGAGTAAACAAATTTTCCTAATCTTTCTGTTCAAGCGCCATCTAC | 1.14 RPM ratio (pull-down/input) |
| GATGATTGTTCTCCCAGCTGATGAATTGCGTTCTTCGAGTAAACAAATTTTCCTAATCTTTCTGTTCAAGCGCCATCTAC | 1.15 RPM ratio (pull-down/input) |
| GATGATTGTTCTCCCAGCTGATGAATTGAGGCCATCGAGTAAACAAATTTTCCTAATCTTTCTGTTCAAGCGCCATCTAC | 0.932 RPM ratio (pull-down/input) |
| GATGATTGTTCTCCCAGCTGATGAATTTTTGAGCTCGAGTAAACAAATTTTCCTAATCTTTCTGTTCAAGCGCCATCTAC | 0.862 RPM ratio (pull-down/input) |
| GATGATTGTTCTCCCAGCTGATGAATTGCCTAAGTCGAGTAAACAAATTTTCCTAATCTTTCTGTTCAAGCGCCATCTAC | 0.889 RPM ratio (pull-down/input) |
| GATGATTGTTCTCCCAGCTGATGAATTACGGTGATCGAGTAAACAAATTTTCCTAATCTTTCTGTTCAAGCGCCATCTAC | 0.986 RPM ratio (pull-down/input) |
| GATGATTGTTCTCCCAGCTGATGAATTCAGCGACTCGAGTAAACAAATTTTCCTAATCTTTCTGTTCAAGCGCCATCTAC | 0.675 RPM ratio (pull-down/input) |
| GATGATTGTTCTCCCAGCTGATGAATTATGTCGGTCGAGTAAACAAATTTTCCTAATCTTTCTGTTCAAGCGCCATCTAC | 0.893 RPM ratio (pull-down/input) |
| GATGATTGTTCTCCCAGCTGATGAATTCGTCAGCTCGAGTAAACAAATTTTCCTAATCTTTCTGTTCAAGCGCCATCTAC | 0.757 RPM ratio (pull-down/input) |

| Sequence | binding signal |
| --- | --- |
| GATGATTGTTCTCCCAGCTGATGAATTGCCGTCCTCGAGTAAACAAATTTTCCTAATCTTTCTGTTCAAGCGCCATCTAC | 0.849 RPM ratio (pull-down/input) |
| GATGATTGTTCTCCCAGCTGATGAATTTTCCATTTCGAGTAAACAAATTTTCCTAATCTTTCTGTTCAAGCGCCATCTAC | 0.926 RPM ratio (pull-down/input) |
| GATGATTGTTCTCCCAGCTGATGAATTGTAAAAATCGAGTAAACAAATTTTCCTAATCTTTCTGTTCAAGCGCCATCTAC | 1.21 RPM ratio (pull-down/input) |
| GATGATTGTTCTCCCAGCTGATGAATTGGTATCTTCGAGTAAACAAATTTTCCTAATCTTTCTGTTCAAGCGCCATCTAC | 1.06 RPM ratio (pull-down/input) |
| GATGATTGTTCTCCCAGCTGATGAATTCCGGAGTTCGAGTAAACAAATTTTCCTAATCTTTCTGTTCAAGCGCCATCTAC | 0.805 RPM ratio (pull-down/input) |
| GATGATTGTTCTCCCAGCTGATGAATTTATACGCTCGAGTAAACAAATTTTCCTAATCTTTCTGTTCAAGCGCCATCTAC | 1.08 RPM ratio (pull-down/input) |
| GATGATTGTTCTCCCAGCTGATGAATTTACAATGTCGAGTAAACAAATTTTCCTAATCTTTCTGTTCAAGCGCCATCTAC | 1.45 RPM ratio (pull-down/input) |
| GATGATTGTTCTCCCAGCTGATGAATTCTAACGGTCGAGTAAACAAATTTTCCTAATCTTTCTGTTCAAGCGCCATCTAC | 0.843 RPM ratio (pull-down/input) |
| GATGATTGTTCTCCCAGCTGATGAATTGTGGGACTCGAGTAAACAAATTTTCCTAATCTTTCTGTTCAAGCGCCATCTAC | 0.958 RPM ratio (pull-down/input) |
| GATGATTGTTCTCCCAGCTGATGAATTAGAACCTTCGAGTAAACAAATTTTCCTAATCTTTCTGTTCAAGCGCCATCTAC | 0.891 RPM ratio (pull-down/input) |
| GATGATTGTTCTCCCAGCTGATGAATTGGGTCTATCGAGTAAACAAATTTTCCTAATCTTTCTGTTCAAGCGCCATCTAC | 0.901 RPM ratio (pull-down/input) |
| GATGATTGTTCTCCCAGCTGATGAATTATACGTTTCGAGTAAACAAATTTTCCTAATCTTTCTGTTCAAGCGCCATCTAC | 1.06 RPM ratio (pull-down/input) |
| GATGATTGTTCTCCCAGCTGATGAATTCCTGATTTCGAGTAAACAAATTTTCCTAATCTTTCTGTTCAAGCGCCATCTAC | 1.02 RPM ratio (pull-down/input) |
| GATGATTGTTCTCCCAGCTGATGAATTCCAATTTTCGAGTAAACAAATTTTCCTAATCTTTCTGTTCAAGCGCCATCTAC | 0.901 RPM ratio (pull-down/input) |
| GATGATTGTTCTCCCAGCTGATGAATTTATTAACTCGAGTAAACAAATTTTCCTAATCTTTCTGTTCAAGCGCCATCTAC | 1.27 RPM ratio (pull-down/input) |
| GATGATTGTTCTCCCAGCTGATGAATTTATCCGGTCGAGTAAACAAATTTTCCTAATCTTTCTGTTCAAGCGCCATCTAC | 0.92 RPM ratio (pull-down/input) |
| GATGATTGTTCTCCCAGCTGATGAATTTCATGCGTCGAGTAAACAAATTTTCCTAATCTTTCTGTTCAAGCGCCATCTAC | 0.944 RPM ratio (pull-down/input) |
| GATGATTGTTCTCCCAGCTGATGAATTCTCAGTCTCGAGTAAACAAATTTTCCTAATCTTTCTGTTCAAGCGCCATCTAC | 0.748 RPM ratio (pull-down/input) |
| GATGATTGTTCTCCCAGCTGATGAATTCGGACTATCGAGTAAACAAATTTTCCTAATCTTTCTGTTCAAGCGCCATCTAC | 0.87 RPM ratio (pull-down/input) |
| GATGATTGTTCTCCCAGCTGATGAATTATTCGTCTCGAGTAAACAAATTTTCCTAATCTTTCTGTTCAAGCGCCATCTAC | 0.982 RPM ratio (pull-down/input) |
